{
  "source": "paper PMC10668032",
  "note": "The list shows a part of the results. At the low end of the ranking the order means little.",
  "data": [
    {"target": "SIX1-Q177R homeodomain (UniProt Q15475)", "assay": "universal protein binding microarray", "settings": "Universal all-10-mer PBM (8x60K, AMADID 030236), 300 nM GST-tagged protein, Alexa Fluor 488 anti-GST; buffer, salt, pH and temperature not stated; high values mean tight binding; most listed sequences are background and not binding sites; double strand, one strand shown", "units": {"binding signal": "E-score"}, "values": [
      {"sequence": "TAACCGAA", "binding signal": -0.0221},
      {"sequence": "CTCGCTGC", "binding signal": -0.141},
      {"sequence": "AGTTAATA", "binding signal": 0.0894},
      {"sequence": "AGATGCCA", "binding signal": -0.312},
      {"sequence": "AAGAACTG", "binding signal": -0.169},
      {"sequence": "ACAGAATC", "binding signal": -0.0446},
      {"sequence": "ACGTCATG", "binding signal": -0.119},
      {"sequence": "GGATCGAA", "binding signal": 0.0613},
      {"sequence": "AATCGACT", "binding signal": -0.0748},
      {"sequence": "AATAGTTG", "binding signal": -0.0781},
      {"sequence": "CGTAGAAA", "binding signal": -0.106},
      {"sequence": "GAGTTAGA", "binding signal": -0.068},
      {"sequence": "CTTTTGCA", "binding signal": -0.0694},
      {"sequence": "AGGCACTG", "binding signal": -0.0499},
      {"sequence": "AACTGCCG", "binding signal": -0.183},
      {"sequence": "CCCAACAA", "binding signal": 0.199},
      {"sequence": "CGAAATCA", "binding signal": -0.254},
      {"sequence": "CGGGCACC", "binding signal": 0.0787},
      {"sequence": "CCGGGTTA", "binding signal": 0.2},
      {"sequence": "GTTCTGAA", "binding signal": 0.0775},
      {"sequence": "AGCTGACA", "binding signal": 0.0626},
      {"sequence": "CACGATGG", "binding signal": 0.137},
      {"sequence": "CAGAATAA", "binding signal": -0.0872},
      {"sequence": "ACATTTAA", "binding signal": -0.155},
      {"sequence": "ATAGATAT", "binding signal": -0.143},
      {"sequence": "GTGTTCAA", "binding signal": 0.386},
      {"sequence": "ACTTACCT", "binding signal": -0.0763},
      {"sequence": "CAGTAACC", "binding signal": -0.0463},
      {"sequence": "AAATCATG", "binding signal": -0.00357},
      {"sequence": "AATCTACC", "binding signal": -0.0508},
      {"sequence": "GCGGCCGC", "binding signal": -0.208},
      {"sequence": "ATGCTCTA", "binding signal": -0.25},
      {"sequence": "CAATTGGA", "binding signal": -0.147},
      {"sequence": "GGAACGAC", "binding signal": -0.0716},
      {"sequence": "ACAAAGCC", "binding signal": -0.101},
      {"sequence": "ACCCGCGC", "binding signal": 0.268},
      {"sequence": "GGCTAATA", "binding signal": -0.102},
      {"sequence": "CGTTAAAG", "binding signal": -0.0264},
      {"sequence": "CGAGGCCC", "binding signal": -0.115},
      {"sequence": "GTTGGCTA", "binding signal": -0.0711},
      {"sequence": "CACTATGG", "binding signal": 0.147},
      {"sequence": "CGTCGTGC", "binding signal": -0.0538},
      {"sequence": "AATATGTA", "binding signal": -0.0929},
      {"sequence": "CTAGCGGC", "binding signal": -0.184},
      {"sequence": "GCTCGTAC", "binding signal": 0.0533},
      {"sequence": "AAAGAGGA", "binding signal": 0.0464},
      {"sequence": "GCGTGGTA", "binding signal": 0.00169},
      {"sequence": "ACACCTGT", "binding signal": 0.46},
      {"sequence": "TCAGCAGA", "binding signal": -0.17},
      {"sequence": "CCATAGAG", "binding signal": -0.119},
      {"sequence": "AAATTCGA", "binding signal": -0.0878},
      {"sequence": "CATCACGA", "binding signal": -0.163},
      {"sequence": "AGTGGTTG", "binding signal": -0.0551},
      {"sequence": "CAACCCCA", "binding signal": 0.173},
      {"sequence": "AATCCTCA", "binding signal": -0.143},
      {"sequence": "GAGTACCC", "binding signal": 0.173},
      {"sequence": "GCCTAAGA", "binding signal": -0.261},
      {"sequence": "AAATATGC", "binding signal": -0.165},
      {"sequence": "ATTTGAGA", "binding signal": -0.0993},
      {"sequence": "GCTCTAAA", "binding signal": -0.261},
      {"sequence": "CCTTTCCC", "binding signal": -0.0576},
      {"sequence": "AGCAGCTA", "binding signal": -0.0665},
      {"sequence": "AGATGGGC", "binding signal": -0.201},
      {"sequence": "ACTGGGTC", "binding signal": -0.0772},
      {"sequence": "CGGTGTTA", "binding signal": 0.485},
      {"sequence": "GCGCCGTA", "binding signal": -0.178},
      {"sequence": "ACGACTAA", "binding signal": -0.14},
      {"sequence": "AACCCGGA", "binding signal": 0.201},
      {"sequence": "GCGTCGCC", "binding signal": 0.015},
      {"sequence": "TACGGCGA", "binding signal": -0.0361},
      {"sequence": "CAGCACCG", "binding signal": 0.242},
      {"sequence": "AAATTACT", "binding signal": -0.165},
      {"sequence": "CGTATCCA", "binding signal": 0.159},
      {"sequence": "CAGCTACC", "binding signal": -0.105},
      {"sequence": "ATGAGGAG", "binding signal": -0.0501},
      {"sequence": "AATGTCTA", "binding signal": -0.147},
      {"sequence": "CCAGCTTA", "binding signal": 0.0911},
      {"sequence": "CCAGACTA", "binding signal": -0.0621},
      {"sequence": "ACCTAGAG", "binding signal": 0.175},
      {"sequence": "CGACATGC", "binding signal": 0.0968},
      {"sequence": "GACTAACC", "binding signal": -0.16},
      {"sequence": "ACAACGAC", "binding signal": 0.0274},
      {"sequence": "AGCCTCTG", "binding signal": -0.199},
      {"sequence": "ACGCATAG", "binding signal": -0.036},
      {"sequence": "ACGAGACG", "binding signal": -0.0936},
      {"sequence": "CGACGGCC", "binding signal": -0.139},
      {"sequence": "AGAAGGCC", "binding signal": -0.35},
      {"sequence": "CTACCCGC", "binding signal": 0.131},
      {"sequence": "ATTACTGC", "binding signal": -0.0979},
      {"sequence": "AGCAAGCA", "binding signal": -0.261},
      {"sequence": "GTGCCGCA", "binding signal": -0.0225},
      {"sequence": "CAGAACGA", "binding signal": 0.133},
      {"sequence": "ACGAGTCT", "binding signal": 0.102},
      {"sequence": "AAACATGT", "binding signal": -0.188}
    ]}
  ]
}
